Results from paper PMC4336329 (PLoS ONE, 2015).
About 14,000 (4.5%) of roughly 310,000 compounds showed an effect of 50% or more. Effects have a minus sign here. Some of the results follow.

Molecular target: human ether-à-go-go-related gene (hERG) potassium channel (human, UniProt Q12809)
Test: primary screen, population patch clamp on CHO cells stably expressing hERG
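Further: peak tail current of the secondary pulse compared with the same well before compound.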

human ether-à-go-go-related gene (hERG) potassium channel, sequence (Q12809 whole entry, looked up): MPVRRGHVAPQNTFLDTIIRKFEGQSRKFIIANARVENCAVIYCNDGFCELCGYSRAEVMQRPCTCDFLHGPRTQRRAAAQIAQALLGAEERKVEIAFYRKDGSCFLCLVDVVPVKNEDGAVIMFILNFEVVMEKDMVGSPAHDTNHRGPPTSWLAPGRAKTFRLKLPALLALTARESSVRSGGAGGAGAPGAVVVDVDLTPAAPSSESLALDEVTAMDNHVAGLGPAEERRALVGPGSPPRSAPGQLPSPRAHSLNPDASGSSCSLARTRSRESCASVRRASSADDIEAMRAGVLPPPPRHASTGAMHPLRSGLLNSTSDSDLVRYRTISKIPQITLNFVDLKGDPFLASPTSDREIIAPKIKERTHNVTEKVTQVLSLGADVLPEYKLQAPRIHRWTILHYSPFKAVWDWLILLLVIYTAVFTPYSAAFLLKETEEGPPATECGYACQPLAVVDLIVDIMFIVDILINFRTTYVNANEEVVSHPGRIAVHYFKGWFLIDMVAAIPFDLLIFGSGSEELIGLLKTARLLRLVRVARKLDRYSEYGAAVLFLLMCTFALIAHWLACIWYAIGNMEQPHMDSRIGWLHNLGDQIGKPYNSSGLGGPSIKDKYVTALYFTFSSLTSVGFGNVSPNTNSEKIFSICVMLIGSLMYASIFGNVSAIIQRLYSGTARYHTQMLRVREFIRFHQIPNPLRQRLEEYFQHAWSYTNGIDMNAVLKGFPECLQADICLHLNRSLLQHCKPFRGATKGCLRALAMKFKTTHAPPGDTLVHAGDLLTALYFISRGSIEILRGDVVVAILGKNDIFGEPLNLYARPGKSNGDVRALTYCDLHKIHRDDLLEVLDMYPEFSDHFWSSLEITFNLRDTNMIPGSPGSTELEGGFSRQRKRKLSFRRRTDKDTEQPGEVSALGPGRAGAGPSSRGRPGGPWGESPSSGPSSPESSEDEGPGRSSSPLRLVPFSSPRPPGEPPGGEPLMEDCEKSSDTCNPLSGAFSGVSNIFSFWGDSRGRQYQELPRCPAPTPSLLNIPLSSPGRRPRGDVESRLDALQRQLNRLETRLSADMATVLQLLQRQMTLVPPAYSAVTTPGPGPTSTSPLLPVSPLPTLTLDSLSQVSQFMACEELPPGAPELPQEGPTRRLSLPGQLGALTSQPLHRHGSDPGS

SMILES	hERG current change (%, negative = inhibition) at 10uM
O=C(Nc1nnc(-c2ccc3c(c2)OCCO3)o1)c1ccc(Cc2ccccc2)cc1	1.47%
O=c1ccn(Cc2ccc(F)cc2)c2ccnc(C(F)(F)F)c12	-25.9%
Cc1cccc(CN2CCC(C(=O)Nc3ccc(Oc4cccnc4)cc3)CC2)c1	-14%
COc1nc(N(C)C)nc(-n2nnc(C(C)=O)c2C)n1	-9.9%
CC(=O)Nc1ccc(-c2nnc(SCc3c(C)cc(C)cc3C)n2C)cc1	4.09%
C/C(CC(=O)NC(C)(C)C)=N\NC(=O)COc1ccc(C)cc1Br	4.28%
COc1ccccc1N(CC(=O)NCCSCc1ccc(C)cc1)S(=O)(=O)c1ccccc1	-4.22%
C=C(C)C1CC=C(C)/C(=N\NC(=O)CCC(=O)Nc2ccc(C)c(C)c2)C1 (stereo not shown)	7.6%
COP(=O)(OC)C(NC(=O)c1ccc(C)cc1)C(Cl)(Cl)Cl (stereo not shown)	15.5%
CCS(=O)(=O)N1CCN(C2CCC(c3ccccc3)CC2)CC1.O=C(O)C(=O)O (stereo not shown)	-17.2%
Clc1ccc(C2C3=C(Nc4ncnn42)c2ccccc2CC3)cc1 (stereo not shown)	-31.8%
Cc1cccn2cc(-c3ccc(Cl)cc3)nc12	10.8%
Cc1ccccc1-c1ncc(CN2CCC(CO)(CCCc3ccccc3)CC2)cn1	-10.9%
COc1ccc(/C=N/n2c(N)nc(-c3ccccc3)c2-c2ccccc2)cc1	-11.2%
CCCOc1ccc(C2C(C(=O)c3ccc(C)o3)=C(O)C(=O)N2CCCn2ccnc2)cc1 (stereo not shown)	-13.4%
CCN1CCCC1CNc1ncnc2c1[nH]c1ccc(Cl)cc12 (stereo not shown)	-77.1%
CCOc1cc(OCC)cc(C(=O)O)c1	2.02%
Nc1c(C=C2C=CC(=O)C=C2)c(=O)nc2sc(CC(=O)N3CCCCC3)nn12	15.6%
COc1cccc(NC(=O)CN(C)C(=O)Cn2cnc3ccccc3c2=O)c1	2.05%
O=S(=O)(c1cccc(F)c1)N1CCN(C(=S)NCC2CCCO2)CC1 (stereo not shown)	9.15%
CN(C)CCCN(C(=O)CCS(=O)(=O)c1ccccc1)c1nc2cc3c(cc2s1)OCO3.Cl	-60%
CCn1c(SCC(=O)Nc2ccc(NC(=O)c3ccco3)c(OC)c2)nc2ccccc2c1=O	-20%
Cc1cc(Oc2ccc(C(C)(C)C)cc2)nc(N2CCOCC2)n1	17.4%
COc1ccc(C2COC(=O)C2=N)c(NC(=O)c2ccccc2)c1 (stereo not shown)	-9.77%
CCC1=NN2C(=N)/C(=C/c3cc(C)n(-c4ccccc4)c3C)C(=O)N=C2S1	16.2%
COc1ccc(OC)c(-n2c(=S)[nH]c3cc(C(=O)NCCCN4CCCC4=O)ccc3c2=O)c1	22.4%
O=C(c1ccccc1)c1ccc2nc(-c3ccc(NC(=O)c4ccccc4F)cc3)[nH]c2c1	-3.21%
CCNC(=O)c1ccc2c(c1)C1C3CCC(C3)C1C(c1ccccc1)N2 (stereo not shown)	-5.8%

SMILES	hERG current change (%, negative = inhibition) at 10uM
CCOc1ccc(S(=O)(=O)N2CCOCC2)cc1NC(=O)CSCc1c(C)noc1C	-17.3%
COC(=O)C(NNc1ccc(F)cc1)(NC(=O)c1ccccc1)C(F)(F)F (stereo not shown)	-3.67%
O=C(CSc1nnnn1-c1ccccc1)c1ccc(O)cc1O	7.63%
Cc1ccc(-c2nc3ncccc3o2)cc1NC(=S)NC(=O)c1ccco1	11.2%
CC(C)(C)[C@@H]1C=C(C(N)=O)O[C@H](OCCCCO)C1	2.58%
COc1cccc(CN(CC(=O)NCc2ccco2)C(=O)CNS(=O)(=O)c2ccccc2)c1	-53.1%
COc1ccc(NC(=O)c2cc(-c3cccs3)on2)c(OC)c1	22.7%
O=C(O)c1ccccc1NS(=O)(=O)c1ccc2c3c(cccc13)C(=O)N2	16.1%
Cc1cccc(C)c1OCC(=O)N/N=C/c1cccn1C	-8.88%
COc1ccc(C(=O)OCCc2ccc(O)cc2)cc1	-7.61%
CC(C)(O)C#Cc1ccc(C(=O)NCc2ccccc2F)cc1	0.639%
CCc1ccc(N2CC(C(=O)Nc3ccc4c(c3)OCO4)CC2=O)cc1 (stereo not shown)	26.3%
CCN1CCN(Cc2cc(OC)c3c(c2)OCO3)CC1	9.99%
CC(C)(C)NC(=O)NC(=O)CN1CCCc2ccccc21	7.02%
CCNc1nc2[nH]c(=O)c3c(c2s1)OC(N)=C(C#N)C3c1ccc(C)cc1 (stereo not shown)	1.97%
COc1ccc(C2C3=C(CCCC3=O)Nc3nc(-c4cc(OC)c(OC)c(OC)c4)nn32)cc1OC (stereo not shown)	-4.12%
Cn1cccc1C(=O)OCC(=O)Nc1ccc2c(c1)CCC2	15.1%
Cc1cccc(Nc2nc(-c3cccs3)cs2)n1	14.7%
CCOC(=O)N1CCN(C(=O)CS(=O)(=O)c2cn(Cc3ccccc3Cl)c3ccccc23)CC1	-1.82%
COc1ccc(-c2cn3cccc(C)c3n2)cc1F	-61.7%
COc1ccc(S(=O)(=O)N2CCOCC2)cc1NC(=O)c1cccc2c(=O)c(C)c(-c3ccccc3)oc12	-32.9%
Cc1ccc(NS(=O)(=O)c2c(C)[nH]c(C)c2C(=O)N2CCCCC2)c(Br)c1	-11.9%
CC(=O)c1ccccc1NC(=O)CC1(CC(=O)O)CCCCC1	31%
O=C(NCc1ccccc1)c1cc(S(=O)(=O)N2CCC3(CC2)OCCO3)ccc1F	-6.48%
Cn1c(=O)n(CC(=O)O)c(=O)c2c1nc1n2CCCN1Cc1ccccc1	17.4%
COC(=O)C1=C(C)N(Cc2ccco2)C(=O)N[C@@H]1c1ccco1	5.27%
CCOC(=O)c1ccc(-c2ccc(/C=N/NC(=O)Cc3nnc(N)s3)o2)cc1	13.6%
